From the RNAGym collection of RNA variant scans (doi:10.1073/pnas.2313332121)
Variants at the background level are over-represented here.

B1: TPR 5TU (parent)
chain: GGAUCUUCUCGAUCUAACAAAAAAGACAAAUCUGCCACAAAGCUUGAGAGCAUCUUCGGAUGCAGAGGCGGCAGCCUUCGGUGGCGCGAUAGCGCCAACGUUCUCAACUAUGACACGCAAAACGCGUGCUCCGUUGAAUGGAGUUUAUCAUG

Variants of: B1
Assay: polymerase ribozyme fitness, log enrichment relative to wild type (log ratio); higher = more active; in vitro selection for triplet polymerase activity
Summary of the method: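 One round of in vitro selection, in triplicate, was applied to PCR-built, transcribed mutant libraries of each subunit of a heterodimeric triplet polymerase ribozyme. The steps were annealing with a biotinylated primer, partner subunit and triplets, incubation frozen at −7 °C, gel excision of extended constructs, streptavidin-bead capture and RT-PCR. Fitness is the logarithm, base 2, of genotype enrichment over wild-type enrichment from inverse-variance-weighted replicate averages of Illumina-sequenced inputs and outputs, keeping genotypes with ≥10 input reads and ≥1 read per output.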

Polymerase ribozyme fitness (log ratio), ≤ -4.2:
GGAUCUUAUCGAUCUAACAAAAAAGACUAAUCUGCCACAAAGCUUGAGAGCAUCUUCGGAUGCAGAGGCGACAGCCUUCGGUGGCGCGAUAGCGUCAACGUUCUCAACUCUGACACGCAAAACGCGUGCUCCGUUGAAUGGAGUUUAUCAUG [C8A A28U G71A C95U A110C]
GGAUCUUAUCGAUCUAACAAAAAAGACACAUCUGCCACAAAGCUUGAGAGCAUCUUCGGAUGCAGAGGCGGCAGCCUUCGGUGGCGCGAUAGCGCCAACGUUCUCAACUAUGACACGCAAAACGCGUGCUCCGUUGAAUGGAGUUUAUCAUG [C8A A29C]
GGAUCUUAUCGAUCUAACAAAAAAGACAACUCUGCCACAAAGCUUGAGAGGAUCUUCGGAUGCUGAGGCGGCAGCCUUCGGUGGCGCGAUAGCCCCAACGUUCUCAACUAUGACACGCAAAACGCCUGCUCCGUUGAAUGGAGUUUAUCAUG [C8A A30C C51G A64U G94C G126C]
GGAUCUUAUCGAUCUAACAAAAAAGACAAUUCUGCCACAAAGGUUGAGAGCAUCUUCGGAUGCAGAGGCGGCAGCCUUCGGUGGCGCGAUAGCGCCAACGUUCUCAACUAUGACACGCAAAACGCGUGCUCCGUUGAAUGGAGCUUAUCAUG [C8A A30U C43G U144C]
GGAUCUUAUCGAUCUAACAAAAAAGACAAUUCUGCCACAAAGCUUGAGAGCAUCUUCGGAUGCAGAGGCGGCAGCGUCCGGUGGCGCGAUAGCGCCAACGUUCUCAACUAUGACAUGCAAAACGCGUGCUCCGUUGAAUGGAGUUUAUCAUG [C8A A30U C76G U78C C116U]
GGAUCUUAUCGAUCUAACAAAAAAGACAAUUCUGCCACAAAGCUUGAGAGCAUCUUCGGAUGCAGAGGCGGCAGCCUUCGGUGGCGCGAUAGUGCCAAGGUUCUCAACUAUGACACGCAAAACGCGUGAUCCGUUAAAUGCAGUUUAUCAUG [C8A A30U C93U C99G C129A G136A G141C]
GGAUCUUAUCGAUCUAACAAAAAAGACAAUUCUGCCACAAAGCUUGAGAGCAUCUUCGGAUGCAGAGGCGACAGCCUUCGGGGGCGCGAUAGCGACAACGUUGUCAACUAUGACACGCAAAACGCGUGCUCCGAUGAAUGUAGUUUAUCAUG [C8A A30U G71A U82G C95A C103G U134A G141U]
GGAUCUUAUCGAUCUAACAAAAAAGACAAAUCUGCCGCAAAGCUUGAGAGCAUCUUCGGAUGCAGAGGCGGCAGCCUUCGGUGGCGCGAUAGCACCAACGUUCUCAACUAUGACACGCAAAAGGCGUGCUCCGUUGAAUGGAGUUUAUCUUG [C8A A37G G94A C123G A150U]
GGAUCUUAUCGAUCUAACAAAAAAGACAAAUCUGCCUCAAAGCUUGAGAGCAUCUUCGGAUGCAGAGGCGGCAGCCUUCGGUGGAGCGAUAGUGCCAACGUUCUCAACUAUGACACGCAAAACGCGUGCUCCGUUGAAUGCAGUUUCUCAUG [C8A A37U C85A C93U G141C A147C]
GGAUCUUAUCGAUCUAACAAAAAAGACAAAUCUGCCACUAAGCUUGAGAGCAUCUUCGGAUGCAGAGGCGGCAGCCUUCGGUGGCGCGAUAGCCCCAACGUUCUCAACUAUGACACGCUAAACGCGUGCUCCGUUGAAUGGAGUUUAUCAUG [C8A A39U G94C A119U]
GGAUCUUAUCGAUCUAACAAAAAAGACAAAUCUGCCACACAGCUUGAGAGCAUCUUCGGAUGCAGAGGGGGCAACCUUCGGUGGCGCGAUAGCGCAAACGUUCUCAACUAUGCCACGCAAAACGCGUGCUCCGUUGAAUGGAGUUUAUCAUG [C8A A40C C69G G74A C96A A113C]
GGAUCUUAUCGAUCUAACAAAAAAGACAAAUCUGCCACAUAGCUUGAGAGCAUCUUCGGUUGCAGAGGCGGCAGCCUUCGGUGGCGCGAUAGCGCCAACGUUCUCAACUAUGAUACGCAAAACGCGUGCUCCGUUGAAUGGAGUUUAUCAUG [C8A A40U A60U C114U]
GGAUCUUAUCGAUCUAACAAAAAAGACAAAUCUGCCACAUAACUUGAGAGCAUCUUCGGAUGCAGAGACGGCAGCCUUCGGUGGUGCGAUAGCGCCAACGUUCUCAACUAUGACACGCAAAACGCGUGCUCCGUUGAAUGGAGGUUAUCAUG [C8A A40U G42A G68A C85U U144G]
GGAUCUUAUCGAUCUAACAAAAAAGACAAAUCUGCCACAAGGCGUGAGAGCAUCUUCGGAUGCAGAGGCGGCAGCCUUAGGUGGCGCGAUCGCGCCAACGUUCUCAACUAUGACACGCAAAACGCGUGCUCCGUUGAAUGGAGUUUAUCAUG [C8A A41G U44G C79A A91C]
GGAUCUUAUCGAUCUAACAAAAAAGACAAAUCUGCCACAAUGCUUGAGAGCAUCUUCGGAUGCAGAGGCGGCAGCCUUCGGUGGCGCGAUAGCGCCAACGUUCUCAACUAUGACACGCAAAACGCGUGCUCCGUUGAAUGGAGUUUAUCAUG [C8A A41U]
GGAUCUUAUCGAUCUAACAAAAAAGACAAAUCUGCCACAAAGCUUGGGAGCAUCUUCGGAUGCAGAGGCGGCAGCCUUCCGUGGCGCGAUAGCGCCAACGUUCUCAACUAUGACACCCAAAACGCGUGCUCCGUUGAAUGGAGUUUAUCAUG [C8A A47G G80C G117C]
GGAUCUUAUCGAUCUAACAAAAAAGACAAAUCUGCCACAAAGCUUGAGCGCAUCUACGGAUGCAGAGGCGGCAGCCUUCGGUGGCGCGAUAGAGCCAACGUUCUCAACUAUGACACGCAAAACGCGUGCUCCGUUGAAUUGAGUUUAUCAUG [C8A A49C U56A C93A G140U]
GGAUCUUAUCGAUCUAACAAAAAAGACAAAUCUGCCACAAAGCUUGAGGGCAUCUUCGGAUGCAGAGGCGACAGCCUUCGGUGGCGCGAUAGUGCCAACGUUCUCAACUAUGACACGCAAAACGCGUGCUCCGUUGAAUGGAGUUUAUCAUA [C8A A49G G71A C93U G152A]
GGAUCUUAUCGAUCUAACAAAAAAGACAAAUCUGCCACAAAGCUUGAGAGCCUCUUUGGAUGCAGAGGCGGCAGCCUUCGGUGGUGCGAUAGCGCCAACGUUCUCAACUAUGACACGCAAAACGCGUGCUCCGUUGAAUGGAGUUUAUCAUG [C8A A52C C57U C85U]
GGAUCUUAUCGAUCUAACAAAAAAGACAAAUCUGCCACAAAGCUUGAGAGCAUCUUCGGAUGCGGAGGCGGCAGCCUUCGGUGGCGCGAUGGCGCCAACGUUCUCAACUAUGACACGCAAAACGCGUGCUCCGUUGAAUGGAGUUUAUCAUG [C8A A64G A91G]
GGAUCUUAUCGAUCUAACAAAAAAGACAAAUCUGCCACAAAGCUUGAGAGCAUCUUCGGAUGCAGCGGCGGCAGCCUUCGGUGGCGCGAUAGCGCCAACGUUCUCAACUAUGACACGCAAGACGCGUGCUCCGUUGAAUGCAGUUUAUCAUG [C8A A66C A121G G141C]
GGAUCUUAUCGAUCUAACAAAAAAGACAAAUCUGCCACAAAGCUUGAGAGCAUCUUCGGAUGCAGUGGCGGCAGCCUGCGGUGGCGCGAUAUCGCCAACGUUCUCAACUAUGACACGCAAAACGCGUGCUCCGUUGAAUGGAGUUUAUCAUG [C8A A66U U78G G92U]
GGAUCUUAUCGAUCUAACAAAAAAGACAAAUCUGCCACAAAGCUUGAGAGCAUCUUCGGAUGCAGAGGCGGCAGCCUUCGGUGGCGCGAUGGCGCCAACGUUCUCAACUAUGACACGCAAAACGCGUGCUCCGUUGAAUGGUUUGUAUCAUG [C8A A91G A142U G143U U145G]
GGAUCUUAUCGAUCUAACAAAAAAGACAAAUCUGCCACAAAGCUUGAGAGCAUCUUCGGAUGCAGAGGCGGCAGCCUUCGGUGGCGCGAUUACGCCAACGUUCUCAACUAUUACACGCAAAACGCGUGCUCCGUUGAAUGGAGUUUAUCAUG [C8A A91U G92A G112U]
GGAUCUUAUUGAUCAAACAAAAAAGACAAAUCUACCACAAAGCUUGAGAGCAUCAUCGGAUGCAGAGGAGGCAGCUUUCCGUGGCGGGCUAGCGCCAACGUUCUCACCUAUGACAUGCAAAACGCGUGCUCCGUUGAAUGGAGUUUAUCAUG [C8A C10U U15A G34A U55A C69A C76U G80C C87G A89C A107C C116U]
GGAUCUUAUCGAUAUAUCAAAAAAGACAAAUCUGCCACAAAGCUUGAGAGCAUCUUCGGAUGCAGAGGCGGCAGCCUUCGGUGGUGCGUUAGCGCCAACGUUCUCAACUAUGACACGCAAAACGCGUGCUCCGUUGAAUGGAGUUUAUCAUG [C8A C14A A17U C85U A89U]
GGAUCUUAUCGAUAUAACAACAAAGACAAAUCUGCCACACAUCUUGAGAGCAUCAUCGGAUGCAGAGGCGGCAGCCUUCGGUGGAGCGAUAGCGCCAACGUUCUCAACUAUGACACGCAAAACGAGUGCUCCGUUGAAUGGAGUUUAUCAUG [C8A C14A A21C A40C G42U U55A C85A C125A]
GGAUCUUAUCGAUAUAACAAAAGAGACAAAUCUGCCACAAAGCUUGAGAGCAUCUUCGGAUGCAGAGGCGGCAGCCUUCGGUGGCGCGGUAGCGACAACGUUCUCAACUAUGACACGCAAAACGCGUGCUCCGUUGAAUGGAGUUUAACAUG [C8A C14A A23G A89G C95A U148A]
GGAUCUUAUCGAUGUAACAAAUAAGACAAAUCUGCCACAAAGCUUGAGAGCAUCAUCGGAUGCAGAGGCGGCAGCCUUCGCUGGCGCGAUAACGUCAACGUUGUCAACUAUGACACGCAAGACGCGUGCUCCGUUGAAUGGAGUUUAUCAUG [C8A C14G A22U U55A G81C G92A C95U C103G A121G]
GGAUCUUAUCGAUGUAACAAAAAAGACAAAUCUGCCACAAAGCUUGAGAGCAUCUUAGGGUGCAGAGGCGGCAGCGUUCGGUGGCGCGAUAGCGCCAACGUUCUCAACUAUGACACGCAAAACGCGUGCUCCGUUGAAUGCAGUUUAUCAUG [C8A C14G C57A A60G C76G G141C]
GGAUCUUAUCGAUGUAACAAAAAAGACAAAUCUGCCACAAAGCUUGAGAGCAUCAUCGGAUGCAGAGGCGGCAGCCUUCGGUGGCGCGAUUGCGCCAACGUUUUCAACUAUGACACGCAAAACGCUUGCUCCGUUGAAUGGAGUUUAUCAUG [C8A C14G U55A A91U C103U G126U]
GGAUCUUAUCGAUGUAACAAAAAAGACAAAUCUGCCACAAAGCUUGAGAGCAUCAUCGGAUGCAGAGGCGGCAGCCUUCGGUGGUGCUAUAGCGCCAACGUUCUCAACUAUGACACGCAAAACGCGUGCUCCGUUGAUUGGAGUUUAUCAUG [C8A C14G U55A C85U G88U A138U]
GGAUCUUAUCGAUUUAACAAAAAAGACAAAUCUGCUACAAAGCUUGUGAGCAUCUUCGGAUGCAGAGGCGGCAGCCUUCGGUGGCGCGAUAGCGAUGACGUUCUCAACUAUGACACGCAAAACGCGUGCUCCGUUGAAUGGAGUUUAUCAUG [C8A C14U C36U A47U C95A C96U A97G]
GGAUCUUAUCGAUCUAAAAAAAAAGACAAAUCUGCGACAAAGCUUGAGAGCAACGUCGGAUGCAGAGGCGGCAGCCUUCGGUGGCGCGAUAGCGCCAACGUUCUCAACUAUGACACGCAAAACGCGUGCUCCGUUGAAUGGUGGUUAUCAUG [C8A C18A C36G U53A U55G A142U U144G]
GGAUCUUAUCGAUCUAAUUAUAAAGACAAAUCUGCCACAAAGCUUGAGAGCAUCUUCGGAAUCAGAGGCGGCAGCCUUCGGUGGCGCGAUGGCUCCAACGUUCUCAACUAUGACACGCAAAACGCGUGCUCCGUUGAAUGGAGUUUAUCAUG [C8A C18U A19U A21U U61A G62U A91G G94U]
GGAUCUUAUCGAUCUAACAAAAAAGAGAAAUCUGCCACAAAGCUUGAGAGCAACAUCAGAUGCAACGGCGGCCGCCUUCGGUGGCGCGAUAGCGCGAACGUUCUCAACUAUGACACGCAAAACGCGUGCUCCGUUGAAUGGAGUUUAUCAUG [C8A C27G U53A U55A G58A G65A A66C A73C C96G]
GGAUCUUAUCGAUCUAACAAAAAAGAUAAAUCUGCCACAAAGCUUGAGAGCAUCUUCGGAUGCAGAGGCGGCAGCUUUCGGUGGCGCGAUAGCGCCAACGUUCUCAACUAUGACACGCAAAACGCGUGCUCCGUUGAAUGGAGUUUAUCAUG [C8A C27U C76U]
GGAUCUUAUCGAUCUAACAAAAAAGACAAAUCUGACACAAAGCUUGAGAGCAUCUUCGGAUGCAGAGGCGGCUGCCUUCGGUGGCGCGAUAGUGCCAACGUUCUCAACUAUGACACGCAAAACGCGUGCUCCGUUGAAUGGAGUUUAUCAUG [C8A C35A A73U C93U]
